Laboratory results as given in PubChem BioAssay (Tox21).
Values joined by “and” are separate entries in the source; they are usually repeats but may differ in a detail not shown here. Equal entries are not always repeated. The shares of active, inactive and inconclusive entries below differ from those in the screen. For part of these data: A potency beside an inconclusive call is a rough fit, not a confirmed value. Active and inactive are the calls of the source. Unless noted, calls follow the shape of the full dose curve.

Assays:
[1] = target: Progesterone receptor (Homo sapiens) (UniProt P06401); experiment: qHTS assay to identify small molecule agonists of the progesterone receptor (PR) signaling pathway (AID 1346784); settings: PR-UAS-bla HEK293T, beta-lactamase FRET ratio, 16 h; activation: at 92.4 µM (top of the series) unless noted; also: nearly all actives have a fitted effect of over 30% in size; also: potency is read from the fitted curve at half-maximal effect; as to activation: % is scaled to controls: 0 for no effect and ±100 for the full control effect
Sequence of UniProt P06401 (P06401 whole entry, looked up): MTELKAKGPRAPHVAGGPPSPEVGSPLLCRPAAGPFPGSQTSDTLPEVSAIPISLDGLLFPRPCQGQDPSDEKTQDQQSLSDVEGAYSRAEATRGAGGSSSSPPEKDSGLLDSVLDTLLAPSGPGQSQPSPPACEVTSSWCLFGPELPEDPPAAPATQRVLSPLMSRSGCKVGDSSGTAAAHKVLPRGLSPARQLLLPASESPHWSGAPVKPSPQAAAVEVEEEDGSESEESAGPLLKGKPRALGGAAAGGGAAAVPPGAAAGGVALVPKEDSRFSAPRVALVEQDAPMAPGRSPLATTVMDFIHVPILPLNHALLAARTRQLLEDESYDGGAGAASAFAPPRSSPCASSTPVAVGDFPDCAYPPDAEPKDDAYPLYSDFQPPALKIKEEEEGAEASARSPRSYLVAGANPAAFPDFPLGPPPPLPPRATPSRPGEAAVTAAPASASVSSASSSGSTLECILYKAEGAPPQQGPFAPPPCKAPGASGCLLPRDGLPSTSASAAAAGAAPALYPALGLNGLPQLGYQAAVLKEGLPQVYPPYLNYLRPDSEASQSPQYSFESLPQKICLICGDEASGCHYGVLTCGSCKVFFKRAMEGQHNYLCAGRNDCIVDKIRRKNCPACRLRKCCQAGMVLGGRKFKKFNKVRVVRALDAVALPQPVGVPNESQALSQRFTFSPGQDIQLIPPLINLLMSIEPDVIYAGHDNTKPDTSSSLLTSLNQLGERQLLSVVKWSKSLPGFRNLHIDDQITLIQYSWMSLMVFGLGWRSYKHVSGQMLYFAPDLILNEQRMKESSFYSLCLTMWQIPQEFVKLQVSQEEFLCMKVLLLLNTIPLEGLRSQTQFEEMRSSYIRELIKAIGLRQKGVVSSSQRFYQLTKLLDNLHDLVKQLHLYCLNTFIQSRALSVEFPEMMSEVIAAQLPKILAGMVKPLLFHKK
Summary of the method: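 Compounds were tested for PR agonism in HEK 293T cells bearing a beta-lactamase gene under UAS control. Treatment lasted 16 hr at 37C; signal came from fluorescence of a FRET substrate.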

[2] = qHTS assay to identify small molecule antagonists of the progesterone receptor (PR) signaling pathway - cell viability counter screen (AID 1346798; active = well fitted curve in the direction sought with a large enough effect in the repeat runs; inconclusive = weak or mixed curves; inactive = no such curve, though single readings can be large; an effect the other way counts as inactive or inconclusive; also: nearly all actives have a fitted effect of over 50% in size; also: potency is read from the fitted curve at half-maximal effect)
Summary of the method: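 Following a 4 hr attachment, PR-UAS-bla HEK293T cells in charcoal-stripped FBS medium were exposed to compounds with R5020 for 16 hr; CellTiter-Glo was added and luminescence read after 30 min at room temperature.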

[3] = target: Progesterone receptor (Homo sapiens) (UniProt P06401); experiment: qHTS assay to identify small molecule antagonists of the progesterone receptor (PR) signaling pathway (AID 1346795; active = well fitted inhibition curve with a large enough effect in the signal ratio in the repeat runs, not every such curve was filed as active; inconclusive = weak or mixed curves; the % refers to the signal ratio; also: potency is read from the fitted curve at half-maximal effect; as to activity change, negative = inhibition: % is scaled to controls: 0 for no effect and ±100 for the full control effect); settings: PR-UAS-bla HEK293T, beta-lactamase FRET ratio, 16 h; activity change, negative = inhibition: at 92.4 µM (top of the series) unless noted
Summary of the method: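 In HEK293T cells bearing the PR-UAS-bla reporter, compound effects on promegestone-driven (1 nM) beta-lactamase expression are assessed after 16 hr using a fluorescent FRET substrate incubated 2 hr at room temperature.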

[4] = qHTS assay to identify small molecule agonists of the progesterone receptor (PR) signaling pathway - cell viability counter screen (AID 1346799); also: potency is read from the fitted curve at half-maximal effect; nearly all actives have a fitted effect of over 45% in size
Summary of the method: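 Here, 3,000 PR-UAS-bla HEK293T cells per well were treated with compounds for 16 hr after a 6 hr preincubation at 37C and 5% CO2; cell viability is the CellTiter-Glo luminescence signal.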

[5] = qHTS assay to identify small molecule antagonists of the TGF-beta/Smad signaling pathway - cell viability counter screen (AID 1346824; active = well fitted curve in the direction sought with a large enough effect in the repeat runs; inconclusive = weak or mixed curves; inactive = no such curve, though single readings can be large; an effect the other way counts as inactive or inconclusive; also: nearly all actives have a fitted effect of over 50% in size; also: potency is read from the fitted curve at half-maximal effect)
Summary of the method: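 SBE-bla HEK 293T cells were plated overnight at 37 C, then given compounds in DMSO plus TGF-beta1 (added as 0.25 ng/mL solution) for 5 hr. After the bla read, CellTiter-Glo was added to the same wells and luminescence read after 30 min at room temperature.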

[6] = qHTS assay to identify small molecule agonists of the TGF-beta/Smad signaling pathway (AID 1346859; active = well fitted activation curve with a large enough effect in the signal ratio in the repeat runs, not every such curve was filed as active; inconclusive = weak or mixed curves; the % refers to the signal ratio; also: potency is read from the fitted curve at half-maximal effect; as to activation: % is scaled to controls: 0 for no effect and ±100 for the full control effect); settings: SBE-bla HEK293T, TGF-beta/Smad beta-lactamase reporter, 5 h; activation: at 76.8 µM (top of the series) unless noted
Summary of the method: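 Each well held 4,000 SBE-bla HEK 293T cells incubated overnight before compound addition; 5 hr later the cleavable FRET substrate went on for 2 hr at room temperature, and fluorescence was read at two emissions.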

[7] = qHTS assay to identify small molecule agonists of the TGF-beta/Smad signaling pathway - cell viability counter screen (AID 1346829; active = well fitted curve in the direction sought with a large enough effect in the repeat runs; inconclusive = weak or mixed curves; inactive = no such curve, though single readings can be large; an effect the other way counts as inactive or inconclusive; also: potency is read from the fitted curve at half-maximal effect; nearly all actives have a fitted effect of over 45% in size)
Summary of the method: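 Compound-treated SBE-bla HEK 293T cells (5 hr, 37 C) were assessed for viability with CellTiter-Glo in parallel with the reporter read.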

[8] = target: Thyrotropin-releasing hormone receptor (Homo sapiens) (UniProt P34981); experiment: qHTS assay to identify small molecule antagonists of the thyrotropin-releasing hormone receptor (TRHR) signaling pathway (AID 1346877; active = well fitted inhibition curve with a large enough effect in the repeat runs, not every such curve was filed as active; inconclusive = weak or mixed curves; also: % is scaled to controls: 0 for no effect and ±100 for the full control effect)
Sequence of UniProt P34981 (P34981 whole entry, looked up): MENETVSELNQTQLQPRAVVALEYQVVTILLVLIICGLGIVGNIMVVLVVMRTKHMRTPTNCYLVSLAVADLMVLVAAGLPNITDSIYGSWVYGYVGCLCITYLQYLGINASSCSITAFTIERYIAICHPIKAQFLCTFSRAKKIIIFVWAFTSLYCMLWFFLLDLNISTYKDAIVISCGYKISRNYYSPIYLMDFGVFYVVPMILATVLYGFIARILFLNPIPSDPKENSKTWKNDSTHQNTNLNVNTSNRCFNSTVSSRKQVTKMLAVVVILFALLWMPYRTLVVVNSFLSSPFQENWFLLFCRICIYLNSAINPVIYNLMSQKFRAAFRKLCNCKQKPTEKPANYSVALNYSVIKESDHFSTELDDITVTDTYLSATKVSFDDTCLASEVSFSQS
Summary of the method: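 Following an 18 h incubation at 37 °C and a 2 h calcium dye load, TRHR-HEK293 cells were exposed to compound (5 min, room temperature) and challenged with TRH, 1 nM final.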
Tags tell the direction and shape of the fitted curve or compound fluorescence and quenching.

## CC(C)Nc1ccccc1
[1]
  Potency: inactive
[2]
  Potency: inactive

## C#C[C@]1(O)CC[C@H]2[C@@H]3CCc4cc(O)ccc4[C@H]3CC[C@@]21C
[1]
  Potency: active: 0.271 µM
[2]
  Potency: inconclusive: 76.4 µM [cytotoxic, single point] and inconclusive: 77 µM [cytotoxic, single point] and inconclusive: 37.6 µM [cytotoxic, single point]

## C[Si](Cl)(c1ccccc1)c1ccccc1
[1]
  Potency: inconclusive: 66.8 µM [falling, partial curve, poor fit]
[3]
  Potency: active: 29.9 µM
[4]
  Potency: inconclusive: 53.1 µM [rising, single point]

## C[C@]12CCC(=O)C=C1CC[C@@H]1[C@@H]2[C@@H](O)C[C@@]2(C)[C@H]1CC[C@]2(O)C(=O)COC(=O)CCC(=O)O
[1]
  activation: inconclusive: 14.2% [at 42.5 µM]
[3]
  Potency: inconclusive: 0.133 µM [falling, single point]
[4]
  Potency: inconclusive: 13.3 µM [rising, single point]

## NC1CCCCC1N (stereo not drawn)
[1]
  activation: inconclusive: 23.1%
[3]
  Potency: inactive
[5]
  Potency: inactive

## CC(C)CCOCc1ccccc1
[1]
  Potency: inactive
[2]
  Potency: inconclusive: 61.1 µM [cytotoxic, partial curve, poor fit]

## CCCCCCOc1ccc(O)cc1
[1]
  Potency: inconclusive: 48.6 µM [cytotoxic, partial curve]
[3]
  Potency: active: 13.7 µM
[6]
  Potency: inactive

## CC(=O)OCC(=O)[C@@]1(O)[C@H](C)C[C@H]2[C@@H]3CCC4=CC(=O)C=C[C@]4(C)[C@@]3(F)[C@@H](O)C[C@@]21C
[1]
  Potency: inconclusive: 11.9 µM [activator, full curve]
[3]
  Potency: inconclusive: 13.3 µM [rising, partial curve, poor fit]
[4]
  Potency: inconclusive: 11.9 µM [rising, single point]

## CC/C(=C(/CC)c1ccc(O)cc1)c1ccc(O)cc1
[1]
  activation: inconclusive: -14.9% and inconclusive: -17.5%
[2]
  Potency: active: 60.6 µM and inconclusive: 77 µM [cytotoxic, single point] and inconclusive: 3.35 µM [cytotoxic, single point]

## CCCCCCCC/C=C\CCCCCCCC(=O)NCc1ccc(O)c(OC)c1
[1]
  Potency: inactive
[3]
  Potency: inconclusive: 29.8 µM [falling, single point]
[2]
  Potency: inconclusive: 29.8 µM [rising, single point]
[4]
  Potency: inconclusive: 33.5 µM
[5]
  Potency: inactive

## CCN(CC)CCNc1ccc(CO)c2sc3ccccc3c(=O)c12
[1]
  activation: inconclusive: 12.3% [at 42.5 µM]
[3]
  Potency: inconclusive: 33.5 µM [single point]
[2]
  Potency: active: 15 µM
[4]
  Potency: active: 13.3 µM

## C/C(=C(/OCCOc1ccc(Cl)cc1)c1ccc(Cl)cc1Cl)n1ccnc1
[1]
  Potency: inconclusive: 21.1 µM [falling, partial curve, poor fit]
[3]
  Potency: active: 8.41 µM
[2]
  Potency: active: 13.3 µM
[4]
  Potency: active: 16.8 µM

## OCc1c[nH]c2ccccc12
[1]
  Potency: inconclusive: 46.7 µM
[3]
  Potency: active: 25.8 µM
[2]
  Potency: inconclusive: 24.3 µM
[4]
  Potency: inconclusive: 27.3 µM
[7]
  Potency: inconclusive: 54.9 µM [cytotoxic, partial curve, poor fit]
[6]
  Potency: inconclusive: 6.16 µM [fluorescent, partial curve, poor fit]

## CCCCCCCC/C=C\CCCCCCCC(=O)N(C)CC(=O)O
[1]
  Potency: inconclusive: 68.6 µM [cytotoxic, single point]
[3]
  Potency: active: 24.3 µM
[2]
  Potency: active: 68.6 µM
[4]
  Potency: active: 68.6 µM
[8]
  Potency: inactive

## Cc1ccc2ccc3cccc4ccc1c2c34
[1]
  activation: inconclusive: 2.04%
[3]
  Potency: inconclusive: 30.6 µM
[2]
  Potency: inconclusive: 30.6 µM [cytotoxic, full curve, poor fit]
[4]
  Potency: active: 27.3 µM

## CCc1oc2ccccc2c1C(=O)c1cc(I)c(O)c(I)c1
[1]
  Potency: inconclusive: 13.3 µM [cytotoxic, full curve]
[3]
  Potency: active: 21.1 µM
[2]
  Potency: inconclusive: 2.37 µM [cytotoxic, full curve, poor fit]
[4]
  Potency: inconclusive: 1.5 µM [cytotoxic, full curve, poor fit]

## CC(C)C(O)C(C)(C)CO (stereo not drawn)
[1]
  Potency: inconclusive: 2.82 µM [activator, full curve]
[3]
  Potency: inconclusive: 44.6 µM [falling, partial curve, poor fit]
[4]
  Potency: inconclusive: 2.82 µM [cytotoxic, full curve]

## Cc1cc2c(cc1C(F)(F)F)N(C(=O)Nc1ccc(Oc3cccnc3C)nc1)CC2
[1]
  Potency: inactive
[3]
  Potency: inconclusive: 13.9 µM [falling, partial curve]
[2]
  Potency: inconclusive: 15.6 µM [rising, partial curve, poor fit]
[5]
  Potency: inconclusive: 55.8 µM [cytotoxic, single point]
[6]
  Potency: inconclusive: 24.9 µM [rising, partial curve, poor fit]
